Out of some 410,000 compounds screened, about 5,000 (1.2%) were called active. The shares of active, inactive and inconclusive entries below differ from those in the screen. Calls follow the shape of the dose curve; as a rule, active = well fitted inhibition curve with a large enough effect; inconclusive = small, poorly fitted or top-dose-only effect; inactive = no such curve, though single readings can be large or run the other way. Potencies of inconclusive entries are doubtful fits and often do not repeat.
Assay: qHTS for Inhibitors of TGF-b; also: nearly all actives have a fitted effect of over 65% in size
Conditions: HepG2 CAGA-GFP TGF-b/SMAD3 reporter, GFP fluorescence, 18 h, TGF-beta stimulated, 500 pg/mL final; series mostly up to 46.1 µM
In short: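 TGF-beta reporter screen: HEPG2 CAGA-GFP, 1% FBS, 500 pg/mL TGF-beta final, 18 h; per-cell GFP summed per well; curves fitted and categorized by class.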
Potency is read from the fitted curve at half-maximal effect; tags tell the direction and shape of the fitted curve.

Row | SMILES | Potency
1 | COc1ccc(-c2cn[nH]c2-c2ccc(OCc3ccccc3)cc2O)cc1OC | inconclusive: 35.5 µM [inhibitor, single point]
2 | CCCCCOC(=O)c1[nH]c2c(c1C)C(=O)C(C(=O)OC)C(C)C2 (stereo not given) | inconclusive: 35.5 µM [inhibitor, single point]
3 | CC(C)NC(=O)C1(C)CCCN1Cc1ccccc1C#N (stereo not given) | inactive
4 | N#Cc1c(C(F)(F)F)cc(-c2cccc(Cl)c2)[nH]c1=O | inconclusive: 35.5 µM [inhibitor, single point]
5 | CC(=O)Nc1cccc(-c2cnc(NC(C)=O)cn2)c1 | inactive
6 | O=C(NCc1ccccc1)C1CCCN(S(=O)(=O)c2cccc3nsnc23)C1 (stereo not given) | inconclusive: 35.5 µM [inhibitor, single point]
7 | CC(C)(C)OC(=O)N1CCC(c2c(C(=O)Nc3ccc4c(c3)OCCO4)cnn2-c2ccc(Cl)cc2)CC1 | inconclusive: 0.562 µM [inhibitor, full curve, poor fit]
8 | O=C1CN(C(=O)COc2ccc(Cl)cc2)C(c2ccccc2)c2cc(Br)ccc2N1 (stereo not given) | inconclusive: 22.4 µM [inhibitor, single point]
9 | COC(=O)C(Cc1c[nH]c2ccccc12)NC(=O)c1cccc(S(=O)(=O)N2CCCCC2)c1 (stereo not given) | inconclusive: 14.1 µM [inhibitor, single point]
10 | BrC(=C\c1ccccc1)/C=N/Nc1nc2ccccc2[nH]1 | inconclusive: 25.1 µM [inhibitor, single point]
11 | CCC1CCCCN1CC(=O)Nc1cc(C)nn1-c1nc(C)cc(C)n1 (stereo not given) | inconclusive: 22.4 µM [inhibitor, single point]
12 | Cc1cccc(S(=O)(=O)N2CN(Cc3ccco3)c3nc4ccccc4nc32)c1 | inconclusive: 0.112 µM [inhibitor, full curve, poor fit]
13 | CCc1noc(C)c1C(=O)OC(C)C(=O)Nc1ccc(Cl)cn1 (stereo not given) | inconclusive: 35.5 µM [inhibitor, single point]
14 | CCOc1ccc(-n2c(/C=C/c3cccc(F)c3)nc3cc(OC)c(OC)cc3c2=O)cc1 | inconclusive: 35.5 µM [inhibitor, single point]
15 | COc1cc(/C=C(/C#N)c2ccc(F)cc2)ccc1OCc1ccc(C(=O)O)o1 | inconclusive: 35.5 µM [inhibitor, single point]
16 | CN(Cc1ccc(C#CCCO)cc1)CC1CCCN(CCc2ccc(Cl)cc2)C1 (stereo not given) | inconclusive: 11.2 µM [inhibitor, partial curve, poor fit]
17 | CSc1cccc(NC(=O)CC2Oc3ccccc3NC2=O)c1 (stereo not given) | inconclusive: 17.8 µM [inhibitor, single point]
18 | O=C(Cn1ncc2c(=O)oc3ccccc3c21)NCCc1ccsc1 | inactive
19 | CC(=O)c1cccc(NC(=O)C2CCN(C(=O)c3cnn(-c4ccccc4)c3-n3cccc3)CC2)c1 | inconclusive: 17.8 µM [inhibitor, single point]
20 | COC(=O)CN(Cc1ccco1)S(=O)(=O)c1ccccc1 | inconclusive: 35.5 µM [inhibitor, single point]
21 | Cc1c(C(=O)N(C)Cc2ccc(F)cc2)sc(=O)n1Cc1ccc(Cl)c(Cl)c1 | inconclusive: 10 µM [inhibitor, partial curve, poor fit]
22 | CCCCC(=O)NCc1nc2cccnc2n1Cc1ccc(OC)cc1 | inactive

Row | SMILES | Potency
23 | COc1cccc(Nc2ccc3cc(S(=O)(=O)N4CCC(C)CC4)ccc3n2)c1 | inconclusive: 28.2 µM [inhibitor, single point]
24 | Cc1ccc(C(C(=O)NC(C)(C)C)N(C(=O)c2csnn2)c2cccc(F)c2)o1 (stereo not given) | inconclusive: 3.55 µM [inhibitor, partial curve, poor fit]
25 | Cc1cccc(-c2cc3nc(-c4ccccc4)cc(=O)n3[nH]2)c1 | inactive
26 | O=C(CCCCCCC(=O)NCc1ccccc1)NCc1ccccc1 | inactive
27 | Cc1cc(N2CCC(C(=O)Nc3ccc(F)cc3)CC2)nc(-c2ccccc2)n1 | inconclusive: 35.5 µM [inhibitor, single point]
28 | CN(Cc1ccc(F)cc1)C(=O)c1cc(COc2ccc(-n3cncn3)cc2)on1 | inconclusive: 3.55 µM [inhibitor, full curve, poor fit]
29 | O=C(Nc1ccccc1)Nc1cccc(Cl)c1Cl | inconclusive: 20 µM [inhibitor, single point]
30 | CCOC(=O)c1cn(-c2ccccc2)nc1-c1ccncc1 | inactive
31 | COc1ccc(OCCSc2nnc(CC(=O)Nc3cccc(Cl)c3Cl)n2C)cc1 | inactive
32 | Cc1nnc(N2CCC(C(=O)N3CCCCCC3)CC2)c2nn(-c3ccc(Cl)cc3)c(C)c12 | inconclusive: 2.24 µM [inhibitor, full curve, poor fit]
33 | CCn1c(C)nc2cc(C(=O)NNC(=O)[C@@H](NC(=O)c3cc(OC)cc(OC)c3)C(C)C)ccc21 | inactive
34 | COc1ccc(NC(=O)CNC(=O)c2sc3ccccc3c2Cl)c(OC)c1 | inconclusive: 3.98 µM [inhibitor, full curve, poor fit]
35 | COC(=O)C1(Cc2cc(-c3ccc(OC)cc3OC)no2)CCN(C(=O)OC(C)(C)C)CC1 | inconclusive: 20 µM [inhibitor, single point]
36 | N#CCCN(/N=C/c1cccnc1)C1=NS(=O)(=O)c2ccccc21 | inactive
37 | O=C1NC(=O)/C(=C\c2ccccc2OCc2ccccc2)S1 | inactive
38 | COc1ccc2sc(-c3ccc(N(C)C)cc3)c(C#CCO)c2c1 | inconclusive: 35.5 µM [inhibitor, single point]
39 | Cc1cc(=O)oc2cc(NC(=O)c3ccccc3OC(F)F)ccc12 | inconclusive: 5.62 µM [inhibitor, single point]
40 | O=C(NC(Cc1ccccc1)C(=O)N1CCCCCC1)c1ccccc1 (stereo not given) | inactive
41 | COc1ccc(-c2nc(SCC(=O)N3CCCC3)n[nH]2)cc1 | inconclusive: 5.62 µM [inhibitor, single point]
42 | NC(=O)C1CCN(C(=O)c2cc(-c3ccc(Cl)s3)nc3ccccc23)CC1 | inconclusive: 11.2 µM [inhibitor, partial curve, poor fit]
43 | Cc1ccc(NC2=NCC(=O)N2Cc2ccc3c(c2)OCO3)cc1 | inconclusive: 6.31 µM [inhibitor, single point]
44 | O=C(Cn1cc(SCc2ccc(C(F)(F)F)cc2)c2ccccc21)N1CCOCC1 | inconclusive: 35.5 µM [inhibitor, partial curve, poor fit]

Row | SMILES | Potency
45 | O=C1N[C@@H](Cc2c[nH]c3ccccc23)COC(=O)[C@@H](Cc2ccc(F)cc2)C/C=C\C[C@H]1CC(=O)N(CCO)Cc1ccccc1 | inconclusive: 20 µM [inhibitor, single point]
46 | CC(=O)NC(c1ccco1)c1cc(Cl)c2cccnc2c1O (stereo not given) | inconclusive: 3.55 µM [inhibitor, full curve]
47 | Cc1ccc(C2=NNC(=Nc3ccc(F)cc3)SC2)cc1 | inactive
48 | C=C(C)CN1C(=O)C2(OCCO2)c2cc(Br)ccc21 | inconclusive: 0.891 µM [inhibitor, full curve, poor fit]
49 | COc1ccccc1CNS(=O)(=O)c1ccc2c(c1)NC(=O)C(C)C(=O)N2 (stereo not given) | inconclusive: 11.2 µM [inhibitor, partial curve, poor fit]
50 | CCCCC[C@H]1CN(C2CCCCC2)C(=O)[C@@H]1CC(=O)NCc1ccccc1 | active: 11.2 µM
51 | NS(=O)(=O)c1ccc(CNC(=S)NCc2ccc(Cl)cc2)cc1 | inconclusive: 11.2 µM [inhibitor, partial curve, poor fit]
52 | Cc1cccc(N(C)C(=O)c2coc(=O)c3ccccc23)c1 | inactive
53 | Cc1c(OCc2ccc(C(=O)O)o2)ccc2c3c(c(=O)oc12)CCC3 | inconclusive: 35.5 µM [inhibitor, single point]
54 | CCOC(=O)c1ccccc1NC(=O)CSc1nnc(C(C)C)n1CC | inactive
55 | CC(=O)Nc1ccc(/C=C/c2nc(-c3ccccc3O)n(-c3ccccc3)n2)cc1 | inconclusive: 12.6 µM [inhibitor, partial curve, poor fit]
56 | CC(=O)CSc1nnc(-c2cnccn2)n1-c1ccccc1 | inconclusive: 2.51 µM [inhibitor, partial curve, poor fit]
57 | COc1ccc(NS(=O)(=O)c2ccc(C)c(C(=O)NCc3ccccc3CN3CCCC3)c2)cc1 | inactive
58 | O=C(Nc1nnc(-c2ccccc2)o1)c1cccc(S(=O)(=O)N2CCOCC2)c1 | inconclusive: 35.5 µM [inhibitor, single point]
59 | CC(=O)Nc1cccc(-c2cc(NC(C)=O)c3ncc(-c4cccc(C(F)(F)F)c4)n3c2)c1 | inconclusive: 2.24 µM [inhibitor, full curve, poor fit]
60 | Cc1ccc(Cn2cc(CCC(=O)NC3CCC(C)CC3)c3ccccc32)cc1 (stereo not given) | inconclusive: 35.5 µM [inhibitor, single point]
61 | CC1CCC(Nc2nc3c(-c4ccc(Cl)cc4)nnn3c3ccccc23)CC1 (stereo not given) | inactive
62 | Cc1ccc2occ(CC(=O)N(Cc3ccccc3Cl)C3CCS(=O)(=O)C3)c2c1 (stereo not given) | inconclusive: 35.5 µM [inhibitor, single point]
63 | CC(C)(C)c1nnc(N/N=C/c2cc(Br)ccc2O)n(N)c1=O | inconclusive: 22.4 µM [inhibitor, single point]
64 | CC(=O)c1ccc(NC(=O)Nc2ccc(NS(=O)(=O)c3ccc(C)cc3)cc2)cc1 | inconclusive: 20 µM [inhibitor, single point]
65 | CCOC(=O)c1cccc(NC(=O)NCc2cccn2Cc2ccccc2)c1 | inactive

From PubChem BioAssay AID588855 (National Center for Advancing Translational Sciences (NCATS), 2011)
